US20260201033A1 (LTZ THERAPEUTICS, published 2026)

Tests used:
[1] = molecular target: T1, Human CLEC5A His Tag protein (ACROBiosystems, Cat #: CLA-H5243) (human, UniProt Q9NY25 28-188, limits assumed); assay: ELISA, plate coated with human CLEC5A
T1 construct: Bought protein with a His tag; also called recombinant human CLEC5A protein
T1 sequence: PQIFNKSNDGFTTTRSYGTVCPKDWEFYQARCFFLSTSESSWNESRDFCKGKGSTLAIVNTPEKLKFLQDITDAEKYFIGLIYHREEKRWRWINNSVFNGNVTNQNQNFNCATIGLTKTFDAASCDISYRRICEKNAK

[2] = molecular target: T2, human EGFR (ACROBiosystems, Cat #: EGR-H5222) (human, UniProt P00533 fragment); assay: ELISA, plate coated with human EGFR
T2 construct: Bought protein; also called recombinant human EGFR protein

EGFR on DLD-1 cells = EGFR on DLD-1 cells (UniProt P00533); assay: cell-based or functional assay
[3] = molecular target: T3, Human C-type lectin domain family 5 member A (CLEC5A), endogenous on human monocytes and M0 macrophages (human, UniProt Q9NY25 1-188); assay: flow cytometry on human M0 macrophages, anti-human IgG PE
T3 construct: Endogenous CLEC5A on primary human monocytes and monocyte-derived M0 macrophages; also called MDL-1; M0 macrophages (CLEC5A+) cells
T3 sequence: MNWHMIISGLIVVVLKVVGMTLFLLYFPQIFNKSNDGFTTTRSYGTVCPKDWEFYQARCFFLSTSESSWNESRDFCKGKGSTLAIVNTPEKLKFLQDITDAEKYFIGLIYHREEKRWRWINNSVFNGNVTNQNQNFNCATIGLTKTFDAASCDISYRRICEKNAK

EC50 [1]: 0.072 µg/mL | EC50 [2]: 0.031 µg/mL | EC50 [3]: 19 nM
B1: EGFR1/5C7 (2+2 A) Fc-optimized (bispecific antibody, human IgG1, kappa)
heavy: QVQLVESGGGVVQPGRSLRLSCAASGFTFSTYGMHWVRQAPGKGLEWVAVIWDDGSYKYYGDSVKGRFTISRDNSKNTLYLQMNSLRAEDTAVYYCARDGITMVRGVMKDYFDYWGQGTLVTVSSASTKGPSVFPLAPSSKSTSGGTAALGCLVKDYFPEPVTVSWNSGALTSGVHTFPAVLQSSGLYSLSSVVTVPSSSLGTQTYICNVNHKPSNTKVDKKVEPKSCDKTHTCPPCPAPELLAGPSVFLFPPKPKDTLMISRTPEVTCVVVDVSHEDPEVKFNWYVDGVEVHNAKTKPREEQYNSTYRVVSVLTVLHQDWLNGKEYKCKVSNKALPLPEEKTISKAKGQPREPQVYTLPPSRDELTKNQVSLTCLVKGFYPSDIAVEWESNGQPENNYKTTPPVLDSDGSFFLYSKLTVDKSRWQQGNVFSCSVMHEALHNHYTQKSLSLSPGK
light: AIQLTQSPSSLSASVGDRVTITCRASQDISSALVWYQQKPGKAPKLLIYDASSLESGVPSRFSGSESGTDFTLTISSLQPEDFATYYCQQFNSYPLTFGGGTKVEIKRTVAAPSVFIFPPSDEQLKSGTASVVCLLNNFYPREAKVQWKVDNALQSGNSQESVTEQDSKDSTYSLSSTLTLSKADYEKHKVYACEVTHQGLSSPVTKSFNRGECGGGGSGGGGSGGGGSAIVMTQTPSSKSVPVGDTVTINCQASESVDRNNRLAWFQQKPGQPPKLLIYTTSTLASGVPSRFKGSGSGTHFTLTISDVVPDDAATYYCAGYRGAHTDGDAFGCGTEVVVKGGGGSGGGGSGGGGSGGGGSQSLEESGGDLVKPGASLTLTCTASGFSFSRSSYMCWVRQAPGKCLEWIGCLSVGDGHTYYASWAKGRFTISKTSSTSVTLQMTRLTAADTATYFCARAPSYSGDGGHGYDLWGPGTLVTVSS
notes: also called EGFR/CLEC5A (2+2 A) Fc-optimized antibody with EGFR portion of Amivantamab (EGFR1)
IC50 (nM), DLD-1 cell killing by M0 macrophages (EGFR on DLD-1 cells): 0.00148 nM
